Test results reported in PubChem BioAssay AID1030 (National Center for Advancing Translational Sciences (NCATS), 2008).
Out of some 220,000 compounds screened, about 16,000 (7.3%) were called active. This list was built around the results that the source calls inconclusive (neither active nor inactive); the mix of calls is not that of the screen. The call rests on the fitted dose curve; in most records, active means well fitted inhibition curve with a large enough effect (not every such curve was filed as active); inconclusive means small, poorly fitted or top-dose-only effect, or another doubt; inactive means no such curve, though single readings can be large or run the other way. No potency is given beside an inconclusive call; the fits are too rough.

Target: Aldehyde dehydrogenase 1A1 (Homo sapiens) (UniProt P00352)
Assay: qHTS Assay for Inhibitors of Aldehyde Dehydrogenase 1 (ALDH1A1);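 on activity, negative = inhibition: plate controls were no enzyme wells and a reference inhibitor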
Settings: Purified ALDH1A1, NADH fluorescence, propionaldehyde substrate; series mostly up to 75.3 µM; activity, negative = inhibition: at the top concentration
Potency means the concentration at half of the fitted maximal effect; tags describe the fitted curve by direction and shape.

Chain of UniProt P00352 (P00352 whole entry, looked up): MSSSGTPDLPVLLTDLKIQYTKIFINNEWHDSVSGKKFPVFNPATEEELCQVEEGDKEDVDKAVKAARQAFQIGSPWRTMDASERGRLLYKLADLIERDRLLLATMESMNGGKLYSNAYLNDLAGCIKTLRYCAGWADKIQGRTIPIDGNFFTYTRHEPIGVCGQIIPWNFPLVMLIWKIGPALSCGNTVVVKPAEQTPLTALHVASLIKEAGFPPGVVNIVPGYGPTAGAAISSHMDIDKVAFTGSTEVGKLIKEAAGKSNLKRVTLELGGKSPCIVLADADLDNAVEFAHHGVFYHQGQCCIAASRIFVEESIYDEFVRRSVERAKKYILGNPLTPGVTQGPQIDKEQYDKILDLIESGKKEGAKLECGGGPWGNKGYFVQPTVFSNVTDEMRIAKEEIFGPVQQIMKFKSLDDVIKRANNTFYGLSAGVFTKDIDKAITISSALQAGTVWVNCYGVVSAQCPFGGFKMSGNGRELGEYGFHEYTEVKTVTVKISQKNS

Compound	Potency	activity, negative = inhibition
Cn1c(SC2CCCCC2=O)nnc1-c1ccncc1 (centres undefined)	inconclusive [inhibitor, single point]	–
Cc1csc(SCC(=O)Nc2ccc(Cl)cn2)n1	–	inactive: 2.13%
O=C(CCl)Oc1ccc2occ(C(=O)c3cccs3)c2c1	active: 0.794 µM	–
O=c1cc(N2CCOCC2)oc2c(-c3ccccc3)cccc12	–	inactive: -5.88%
Cc1ccc([N+](=O)[O-])cc1NC(=S)NC(=O)CC(C)(C)C	–	inactive: -14.2%
COc1ccc(Cl)cc1NC(=S)N1CCN(C(=O)c2ccco2)CC1	inconclusive [inhibitor, single point]	–
CC(=O)N(C1CC(C)C(C#N)(C#N)C1(C#N)C#N)N(C)C (centres undefined)	inconclusive [inhibitor, single point]	–
O=C(Nc1ncc2c(n1)CC(c1ccccc1)CC2=O)c1ccco1 (centres undefined)	inconclusive [inhibitor, single point]	–
Cc1ccc2nc(SCC(=O)NC(=O)NCc3ccco3)[nH]c2c1	inconclusive [inhibitor, single point]	–
Cc1cc(C(=O)OCn2nnc3ccccc3c2=O)c(C)o1	–	inactive: -7.03%
COC(=O)c1ccc(C(NC(=O)OCc2ccccc2)/C(=C/[C@@H](C)C(=O)NCc2ccc(S(C)(=O)=O)cc2)c2cccnc2)cc1 (some centres undefined)	inconclusive [inhibitor, single point]	–
COc1ccc(-n2c(C)nnc2SCC(=O)N2C(C)CCCC2C)cc1 (centres undefined)	inconclusive [inhibitor, single point]	–
Cc1cc(C)c2c(CC(=O)NC(C)C)coc2c1	–	inactive: 0.851%
Cc1ccc(Cn2c(C(=O)NCCCN3CCOCC3)cc3sccc32)cc1	inconclusive [inhibitor, single point]	–
C=CCn1c(N)c(-c2nc3ccccc3n2C)sc1=S	inconclusive [inhibitor, single point]	–
COc1ccc(S(=O)(=O)Cc2ccc(C(=O)NCc3cccs3)o2)cc1	inconclusive [inhibitor, single point]	–
Cc1ccc(S(=O)(=O)NCCC(=O)NCc2ccco2)cc1	inconclusive [inhibitor, single point]	–
CC(=O)C1=C(c2ccccc2)NC(=S)NC1c1ccc(O)c(O)c1 (centres undefined)	inconclusive [inhibitor, single point]	–
O=C(NCCc1ccccc1)c1n[nH]c2ccccc12	inconclusive [inhibitor, single point]	–
Cc1scc(C(=O)NCc2ccco2)c1-c1ccccc1	inconclusive [inhibitor, single point]	–
CC1CC(C)(C)NC(=S)N1CCCC(=O)Nc1ccccc1F (centres undefined)	–	inactive: 2.25%
N=C1/C(=C/c2cccn2-c2cccc([N+](=O)[O-])c2)C(=O)N=C2SC=CN12	inconclusive [inhibitor, full curve]	–
CC(=O)[C@H]1[C@@H]2C(=O)N(c3cccc(Cl)c3)C(=O)[C@@H]2[C@H]2c3ccccc3C=CN21	active: 7.94 µM	–
CCCN(CCC)c1ncnc2c1cnn2-c1ccc(OC)cc1	inconclusive [inhibitor, single point]	–
Cc1ccc(C(=O)c2ccc([N+](=O)[O-])cc2)cc1C	inconclusive [inhibitor, partial curve]	–

Compound	Potency	activity, negative = inhibition
C/C(Cn1nnc([N+](=O)[O-])n1)=N\NC(=O)c1cccc(Cl)c1	inconclusive [inhibitor, single point]	–
COc1cccc(/C=N/NC(=O)CC(=O)NCCc2ccc(OC)c(OC)c2)c1	–	inactive: 6.85%
N#Cc1c2n(c3c(=O)n(CC(=O)c4ccc([N+](=O)[O-])cc4)cnc13)CCCCC2	inconclusive [inhibitor, single point]	–
O=C(/C=C/c1ccc2c(c1)OCO2)NCCSCc1ccc(Cl)cc1Cl	inconclusive [inhibitor, single point]	–
Cc1nnnn1/C(=C\c1ccccc1)C(=O)OCC(=O)N1CC2(C)CC1CC(C)(C)C2 (centres undefined)	active: 4.47 µM	–
O=C(N/N=C/c1cc(Br)cc(Br)c1O)c1cccc(N2CCCC2=O)c1	–	inactive: -1.19%
O=C(N/N=C/C=C/c1ccco1)c1cnccn1	active: 3.16 µM	–
CN(CC(=O)Nc1ccc(N2CCOCC2)cc1)Cc1c(O)ccc2ccccc12	active: 3.55 µM	–
COc1cc(CN2CCN(S(=O)(=O)c3ccc(F)cc3)CC2)cc(OC)c1OC	inconclusive [inhibitor, single point]	–
COc1ccc(-c2cc(=O)c3cc(OC)ccc3[nH]2)cc1	inconclusive [inhibitor, single point]	–
Cc1cc(C)cc(C(=O)N2CCC(C(N)=O)CC2)c1	inconclusive [inhibitor, full curve, poor fit]	–
COc1ccccc1NS(=O)(=O)c1cc(NC(=O)c2ccc(Cl)nc2)ccc1Cl	active: 25.1 µM	–
COCC(=O)Nc1c(C(=O)Nc2ccccc2OC)oc2ccccc12	inconclusive [inhibitor, single point]	–
O=C(O)/C=C/C(=O)NNc1ccc([N+](=O)[O-])cc1	active: 14.1 µM	–
O=C(c1ccccc1)N1CCN(C2c3cccc4cccc(c34)C2NS(=O)(=O)c2ccccc2)CC1 (centres undefined)	active: 11.2 µM	–
COc1cccc(N=c2oc3cc(O)ccc3cc2C(=O)NCC2CCCO2)c1 (centres undefined)	inconclusive [inhibitor, partial curve]	–
CCOC(=O)c1ccccc1NC(=O)CSc1ccccc1	inconclusive [inhibitor, single point]	–
CC(=O)c1nc(-c2ccccc2)sc1C	–	inactive: 8.39%
CN(C)/C=C/c1onc(-c2c(Cl)cccc2Cl)c1C#N	active: 12.6 µM	–
CC1CN(CCCSc2ccc(Cl)cc2)CC(C)O1 (centres undefined)	inconclusive [inhibitor, single point]	–
CCC(C(=O)NC(C)CCc1ccco1)n1nc(C)n2c(cc3occc32)c1=O (centres undefined)	inconclusive [inhibitor, single point]	–
Clc1ccc(C2=NNC(=NCC3CCCO3)SC2)cc1 (centres undefined)	active: 8.91 µM	–
Cc1ccc([N+](=O)[O-])cc1NC(=O)c1ccc2c(c1)OCO2	inconclusive [inhibitor, single point]	–
O=C1Cn2c(nc3ccccc32)N1c1ccccc1F	–	inactive: 6.22%
Cc1cc(-n2c(=O)c(C#N)cc3c(=O)n4cccc(C)c4nc32)no1	inconclusive [inhibitor, partial curve]	–

Compound	Potency	activity, negative = inhibition
O=C(CCCO)CCCCCCCCC[C@H]1N[C@H](CO)[C@@H](O)[C@@H]1O	–	inactive: -1.39%
Cc1ccc(C(=O)CCC(=O)N2CCN(C(=O)c3ccco3)CC2)cc1	active: 22.4 µM	–
O=C(Nc1sc2c(c1C(=O)c1ccccc1)CCCC2)c1cccnc1	inconclusive [inhibitor, single point]	–
N=C1CCC[C@@H]1C(=S)SCCC(N)=O	–	inactive: 11.2% [at 13.5 µM]
O=C(c1cccs1)N1CCN(C/C=C/c2ccccc2)CC1	inconclusive [inhibitor, single point]	–
COc1ccc(-c2nc3cnc(Oc4cccc(Cl)c4)nc3n(C3CC3)c2=O)cc1	inconclusive [inhibitor, partial curve]	–
CCN(CC)CCn1cnc2c([nH]c3cccc(OC)c32)c1=O	inconclusive [inhibitor, partial curve]	–
COC(=O)c1ccc2c(=O)n(-c3ccc(OC)cc3)c(=S)[nH]c2c1	inconclusive [inhibitor, partial curve]	–
Cc1ccc(C(=O)NC(=S)Nc2ccc(S(=O)(=O)N(C)c3ccccc3)cc2)cc1	active: 11.2 µM	–
O=S(=O)(c1ccccc1)c1nc(-c2ccco2)oc1NCCN1CCOCC1	active: 14.1 µM	–
CC(=O)NC(NC(=S)Nc1ccccc1Br)C(Cl)(Cl)Cl (centres undefined)	inconclusive [inhibitor, single point]	–
CC(C)(C)c1nnc(NC(=O)c2ccc(Cl)nc2)s1	inconclusive [inhibitor, single point]	–
O=S(=O)(c1ccccc1F)N1CCN(C(=S)NCc2ccccc2)CC1	active: 15.8 µM	–
CN1CCN(C(=S)NC(=O)c2ccc(Cl)cc2)CC1	active: 17.8 µM	–
O=C(CCSc1ccccc1)Nc1ccc(S(=O)(=O)N2CCOCC2)cc1	inconclusive [inhibitor, single point]	–
C[N+]1(C)CC2=Cc3ccccc3CC2C1 (centres undefined)	–	inactive: 0.195%
COC(=O)NC(=S)Nc1ccc(Oc2ccc(Cl)cc2Cl)c(Cl)c1	inconclusive [inhibitor, single point]	–
O=C(Nc1nnc(COc2ccc(Cl)cc2)s1)c1ccco1	active: 3.16 µM	–
CNC(=O)C1(C)C=CCN1C(=O)OC (centres undefined)	–	inactive: 3.75%
O=C(O)CS/C(=C\c1ccc(F)cc1)c1nc2ccccc2s1	–	inactive: 9.19%
O=C(CCc1nnc(-c2ccccc2)o1)NCc1cc(F)ccc1F	inconclusive [inhibitor, single point]	–
CCOc1ccc(N2C(=O)C3CC(C)=C(C)CC3C2=O)c([N+](=O)[O-])c1 (centres undefined)	inconclusive [inhibitor, single point]	–
Cc1cc(C(=O)C(=O)NC(C)C)c(C)n1-c1ccc([N+](=O)[O-])cc1	inconclusive [inhibitor, partial curve]	–
CCCSc1cc(NCCOC(=O)CCC)c([N+](=O)[O-])c2nonc12	inconclusive [inhibitor, single point]	–
